Results taken from the supplement of paper PMC3334620.
Whole data set: some 33,000 sequences, median “E-score (-0.5 to 0.5)” near -0.017, cut for the highest 2% near 0.3. Some of the results follow.

target: T1, Sut1 (UniProt P53032); assay: PBM E-score (8-mer binding enrichment) (E-score (-0.5 to 0.5)); higher = stronger / more preferred TF binding; most listed sequences are background and not binding sites; settings: protein concentration: 200 nM; construct: GST-full length
T1 sequence: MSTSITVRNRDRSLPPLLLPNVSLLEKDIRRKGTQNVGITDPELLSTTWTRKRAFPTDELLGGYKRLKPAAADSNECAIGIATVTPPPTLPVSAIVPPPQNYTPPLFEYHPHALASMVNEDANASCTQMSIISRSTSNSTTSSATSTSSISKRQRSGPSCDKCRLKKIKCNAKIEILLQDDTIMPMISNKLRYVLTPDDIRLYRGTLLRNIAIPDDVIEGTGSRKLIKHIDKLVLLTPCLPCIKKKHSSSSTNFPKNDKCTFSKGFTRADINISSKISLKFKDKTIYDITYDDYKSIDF
Summary of the method: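 Each ungapped eight-base word and its reverse complement, pooled, received an E-score from the Universal PBM Analysis Suite. Underlying scans, normalised with masliner, recorded fluorescent anti-GST bound to GST-tagged yeast transcription factors. These were applied at about 100-200 nM to universal all-10-mer Agilent arrays double-stranded by primer extension.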

| Sequence | PBM E-score |
| --- | --- |
| CTATGTTC | 0.153 |
| ATGGGGCC | -0.5 |
| AACAGAGA | -0.0653 |
| CCATCAAC | -0.0668 |
| CGTGTTCA | 0.00384 |
| GGTGGTGA | 0.0661 |
| AATATACA | 0.29 |
| TAACCTTA | 0.0692 |
| CTCCTTAA | 0.116 |
| GGCTGGAC | -0.278 |
| AGTCACTG | -0.118 |
| ATTTAAAC | 0.256 |
| ATATGTCG | -0.0687 |
| ACGAACTC | 0.174 |
| ACAGTGCT | 0.0366 |
| ATCTCAAT | 0.113 |
| CAGGACGG | -0.124 |
| ACGCTAAT | -0.0165 |
| GGTGTGTA | -0.123 |
| CTGTATTC | 0.209 |
| GCTCAAGA | -0.148 |
| CCATTGCC | -0.0398 |

| Sequence | PBM E-score |
| --- | --- |
| CCGAATCC | 0.143 |
| CCGATGAG | 0.07 |
| CGCTCGCC | -0.0658 |
| CTCCGCGA | 0.35 |
| AGTCTCCA | -0.229 |
| TAATGGCA | -0.134 |
| CTCTTGCA | -0.228 |
| ACCTTGAC | -0.143 |
| ACATCCTC | -0.114 |
| ATCTCACC | 0.0437 |
| CGGCCAAG | -0.0655 |
| GGGTAGAC | -0.151 |
| CTAGTCAA | 0.015 |
| ACCATGAT | -0.0585 |
| TTGGCAAA | -0.0175 |
| AAACGTGG | -0.137 |
| AGAGAAAT | 0.126 |
| GAGGTGCA | -0.0431 |
| AAAGCGCC | 0.0273 |
| AGATAATA | 0.124 |
| AAATGAAT | 0.184 |
| CGTTCCTA | -0.112 |

| Sequence | PBM E-score |
| --- | --- |
| ACTGGATC | -0.0162 |
| CAGATCAG | 0.107 |
| CGCCACTC | -0.0913 |
| ATACTGCA | 0.126 |
| CGACTATA | -0.013 |
| ACACACGA | 0.0316 |
| AGCCCTAA | 0.0488 |
| CTATCCAC | 0.0213 |
| AGCCCATG | -0.2 |
| AGTCTCGG | 0.109 |
| ATGGCATA | 0.0329 |
| CTCTTAAA | 0.302 |
| AGATCCCC | -0.125 |
| CCTAATCA | 0.165 |
| AGGATAGA | 0.0417 |
| CTTATATC | 0.222 |
| ATTACTTC | 0.102 |
| CCTTTGGA | -0.126 |
| ATGTCCCC | -0.163 |
| AGTCCCCC | -0.276 |
| AGAAGAAT | 0.139 |
| CACTCACC | -0.0683 |

| Sequence | PBM E-score |
| --- | --- |
| AAGGCTCT | -0.132 |
| AGATACAG | 0.08 |
| ACTGGCAG | -0.12 |
| GATCTCGA | -0.0163 |
| CGACCTTC | 0.0798 |
| AGGCCTTC | 0.0672 |
| ACCTGAGT | -0.0732 |
| GTCGCATA | 0.0981 |
| ATGGGTCG | -0.0319 |
| GACATGCA | -0.0916 |
| CGACAGCA | -0.0542 |
| GCATGTGA | -0.181 |
| CTTCCAGA | -0.274 |
| AATTCCAA | 0.21 |
| CGGCGTAA | 0.166 |
| CTCATACA | 0.138 |
| ATCGGCCC | -0.258 |
| CCTCACTA | -0.0975 |
| AAACAGAA | 0.143 |
| TATTAGGA | 0.0533 |
